Results reported in PubChem BioAssay AID743262 (National Center for Advancing Translational Sciences (NCATS), 2014).
Among all 1,300 compounds or so, about 25 (2%) were called active. Inconclusive results (about 9%) are left out. Calls follow the shape of the dose curve; as a rule, active = well fitted activation curve with a large enough effect; inconclusive = small, poorly fitted or top-dose-only effect; inactive = flat fitted curve, though single readings scatter. Some of the results follow.

Each compound was assayed against Glucagon-like peptide 1 receptor (Homo sapiens) (UniProt P43220) (assay: qHTS of GLP-1 Receptor Agonists: Hit Validation). Conditions: HEK293 GLP-1R, cAMP-response luciferase, 4-6 h; series mostly up to 46.1 µM; activation: at the top concentration.
Sequence of UniProt P43220 (P43220 whole entry, looked up): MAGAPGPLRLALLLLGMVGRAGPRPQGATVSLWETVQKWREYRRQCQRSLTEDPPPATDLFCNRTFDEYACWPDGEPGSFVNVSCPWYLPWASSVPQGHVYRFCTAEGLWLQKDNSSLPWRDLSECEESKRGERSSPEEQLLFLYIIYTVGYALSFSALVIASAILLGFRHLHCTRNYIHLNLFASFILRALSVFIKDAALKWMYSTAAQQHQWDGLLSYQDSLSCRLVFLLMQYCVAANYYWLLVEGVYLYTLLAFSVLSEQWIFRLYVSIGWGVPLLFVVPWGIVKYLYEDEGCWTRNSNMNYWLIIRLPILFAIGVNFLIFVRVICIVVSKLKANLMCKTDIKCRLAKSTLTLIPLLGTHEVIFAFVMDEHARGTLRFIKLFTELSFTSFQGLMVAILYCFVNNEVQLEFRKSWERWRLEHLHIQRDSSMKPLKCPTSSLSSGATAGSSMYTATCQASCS
In short: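 HEK293 cells stably co-expressing a cAMP-responsive luciferase reporter and GLP-1R (hypersensitive receptor for weak agonists; wild-type line for confirmation) were plated 12 h at 37 °C, exposed to compound 4-6 h, then read by luminescence after 12 min detection reagent.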
Also: % of control where 0% means no effect.

activation, inactive:
O=c1cc(N2CCCCC2)nc2n1CCCS2 -0.517%, CCOC(=O)c1c(C)[nH]c(C(=O)N2CCc3cc(OC)c(OC)cc3C2)c1C 7.6%, CC(C)c1nc(Cl)c(C#N)c2c1COC(C)(C)C2 18%, O=C(CCCCn1c(=O)c2ccccc2n(Cc2ccc(F)cc2Cl)c1=O)NCc1ccco1 3.66%, COc1ccc(N2CCN(C(=O)CSc3ccccc3)CC2)cc1 24.8%, CCC(=O)N1CCc2cc(OC)c(OC)cc2C1COc1ccc(OC)cc1 (stereo not drawn) 5.06%, COc1cccc(CNC(=O)c2cccnc2Sc2ccccc2)c1 -0.259%, Cn1c(=N)n(CC(=O)C(C)(C)C)c2ccccc21 1.55%, C=CCSc1cc(C)nc2c(-c3ccccc3)c(C)nn12 8%, CC(=O)Nc1ccc(NC(=O)c2cc(C3CC3)nc3c2cnn3C(C)C)cc1 2.18%, CC(=O)c1cccc(S(=O)(=O)N2CCCC(c3nc(-c4ccc(C)o4)no3)C2)c1 (stereo not drawn) 2.03%, COc1ccc(/C=C2\SC(N3CCCCC3)=NC2=O)cc1OC 24.1%, O=C(CCCCCNC(=O)c1ccccc1)N/N=C/c1ccccc1 -0.75%, OC(CNCc1cccc(Br)c1)c1ccccc1 (stereo not drawn) 11.8%, CCN=c1scc(-c2cccs2)n1/N=C/c1cc(OC)ccc1O 2.73%, CCOc1ncccc1C(=O)OCc1ccc(C(=O)OC)cc1 18.9%, CCS(=O)(=O)n1nc(-c2cccnc2)nc1NCc1ccc(F)cc1 -0.385%, c1ccc(-c2ccccc2-c2nc(-c3cccnc3)no2)cc1 5.05%, Cc1nc(C)c(-c2ccc(SCC(=O)Nc3cccc(Cl)c3C)nn2)s1 27.2%, COc1ccc(C2=NN(C(=O)c3ccco3)C(c3ccco3)C2)cc1OC (stereo not drawn) 17.5%, Cc1nn2c(COc3ccc(NC(=O)C(C)C)cc3)nnc2c2ccccc12 10.4%, O=C(Nc1cccc(Cl)c1)N1CCN(c2ncccn2)CC1 -0.889%, Cn1c(=Nc2ccccc2)sc2ccccc21 7.22%, COc1ccc(-c2ccc(=O)n(CC(=O)Nc3cccc(O)c3)n2)cc1OC 25.3%, O=C(Nc1cccc(OC(F)(F)F)c1)c1ccc(-c2cccnc2)c2ccoc12 9.25%, c1ccc2c(N3CCCC3)nc(-c3ccncc3)nc2c1 7.12%, COc1cc2c(cc1OC)/C(=C/C(=O)c1ccc(NC(C)=O)cc1)NCC2 29.3%, CCc1cc2c(-c3ccccc3)cc(=O)oc2c(CN2CCOCC2)c1O 4.04%, O=C(/C=C/c1ccc([N+](=O)[O-])cc1)NCCOc1ccc(F)cc1 -0.0506%, O=C(O)CN1C(=O)/C(=C\c2cccc(OCc3ccccc3F)c2)SC1=S -0.325%, COc1ccc(OC)c(C(=O)Nc2c(O)ccc3ccccc23)c1 3.74%, COc1ccc(Nc2nc(N)nc(CSC(=S)N3CCCCC3C)n2)cc1 (stereo not drawn) 6.7%, O=C1NC(c2cccc3ccccc23)Nc2ccccc21 (stereo not drawn) 6.2%, COC(=O)c1ccc(COC(=O)c2ccc(SC)cc2OC)cc1 3.19%, CCc1cc2c(CN3CCN(Cc4ccccc4)CC3)cc(=O)oc2cc1O -1.22%, CCN(CC)S(=O)(=O)c1cc(NC(=O)c2ccccc2OCc2c(C)noc2C)ccc1C 1.93%, COc1ccc(S(=O)(=O)N(C)C)cc1NC(=O)c1ccc(OCC(=O)N2CCOCC2)c(OC)c1 0.301%, CCn1c(SCC(=O)OC)nc2sc3c(c2c1=O)CC(C)(C)OC3 6.2%, CCC1(CC)Cc2ccccc2-c2nc(CN(C)C)[nH]c(=O)c21 2.97%, CCOC(=O)CN1C(=O)S/C(=C/c2ccc(OCc3ccc(C(=O)O)cc3)cc2)C1=O -1.18%, Cc1nn(Cc2ccccc2)c(Cl)c1C(=O)OC(C)C#N (stereo not drawn) 6.68%, Cc1c(C)n(Cc2ccccc2)c2ccc(C(=O)OCCCN(C)C)cc12 8.23%, COC(=O)C(CN)c1c[nH]c2ccc(OC)cc12 (stereo not drawn) 2.04%, Cc1csc(NC(=O)CCN2C(=O)c3ccccc3S2(=O)=O)n1 -0.742%, CC(NC(=O)CN1C(=O)COc2ccccc21)c1ccccc1 (stereo not drawn) 22.2%, CC(C)Nc1nc(Nc2ccccc2Cl)c2sccc2n1 5.71%, Nc1nc(NCCCN2CCOCC2)nc(Nc2cccc(Cl)c2)c1[N+](=O)[O-] 4.41%, O=C(/C=C\c1ccc(-c2cccc([N+](=O)[O-])c2)o1)N1CCOCC1 14.4%, Cc1ccc(C)c(Nc2c([N+](=O)[O-])ccc3nonc23)c1 23.3%, CCOC(=O)c1c(-c2ccc(F)cc2)csc1/N=C/N(C)C -0.16%, O=c1c2ccccc2oc2cc(NCCCN3CCOCC3)ccc12 2.1%, C=Cc1ccc(Cn2nc(-c3ccc(C)cc3)ccc2=O)cc1 6.93%, CCCCNc1c(-c2ccc(SC(C)CC)cc2)nc2ccc(Cl)cn12 (stereo not drawn) 0.404%, Nc1ncnc2c1ncn2[C@@H]1O[C@H](COP(=O)(O)OP(=O)(O)OP(=O)(O)O)[C@@H](O)[C@H]1O -0.704%, CSc1nc(C)c2c(n1)N(c1ccc(O)cc1)CC2 4.44%, N#CC(c1ccncc1)(c1ncc(C(F)(F)F)cc1Cl)N1CCOCC1 (stereo not drawn) 1.91%, c1ccc2c(c1)CCN(c1nc3ccccc3n3cnnc13)C2 15%, CC1CCCc2sc3nc(NCc4ccco4)n4ncnc4c3c21 (stereo not drawn) 26%
